Experimental data: the supplement of paper PMC10723795
Structures can show the parent of a compound that is named as a salt. This is one part of the list.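 Rule for the calls: active = more than 2 SD below the DMSO mean: under 0.85 at 10 µM or 0.885 at 1 µM; inactive = the rest.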 Repeats are few or missing, and single values can be far off. *1 amine or outer side, *2 acyl side, *3 side chain or, on linkers, in order; H or OH if unused. Where a SMILES comes first, the peptide text is derived from it. Bridges are numbered along the chain shown (N, C = ends). Roman numbers before positions name the chains, in order. [ ]: non-standard residue; d: D form. Hexamethylenediamine = C(CCCN[*:2])CCN[*:1]; Dip = N[CH](C(=O)O)C(c1ccccc1)c1ccccc1; Chg = N[CH](C(=O)O)C1CCCCC1; NMeA = CN[CH](C)C(=O)O

Test system: RPE1
Assay: nucleolar normality score relative to DMSO (fraction of DMSO control); RPE1 is a non-cancer human cell line; higher = more normal nucleoli (less nucleolar stress)
Settings: 24 h
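Note: fixed cells immunolabelled for nucleolin and UBF, 40 image fields per well in 384-well plates, per-cell score = nucleolin nucleolar/nucleoplasm intensity ratio divided by the matching UBF ratio.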

| SMILES | nucleolar normality score (1 µM) | nucleolar normality score (10 µM) |
| --- | --- | --- |
| COc1ccc(S(=O)(=O)NCc2ccc(C(=O)NCCc3ccc(Cl)cn3)cc2)cc1 | inactive: 1.03 | inactive: 1.01 |
| C=CC(=O)N1CC(=Cc2ccc([N+](=O)[O-])cc2)C(=O)C(=Cc2ccc([N+](=O)[O-])cc2)C1 | active: 0.524 | active: 0.587 |
| C=C1C[C@@]23CC[C@H]4[C@@](C)(CCC[C@@]4(C)C(=O)O[C@@H]4O[C@H](CO)[C@@H](O)[C@H](O)[C@H]4O)[C@@H]2CC[C@]1(O[C@@H]1O[C@H](CO)[C@@H](O)[C@H](O)[C@H]1O[C@@H]1O[C@H](CO)[C@@H](O)[C@H](O)[C@H]1O)C3 [Stevioside] | inactive: 1.06 | inactive: 1.05 |
| N#CC(=Cc1ccc(O)c(O)c1)C(=O)NCc1ccccc1 [AG-490 (Tyrphostin B42)] | inactive: 1.03 | inactive: 1.04 |
| COc1ccccc1-c1cc(Nc2cccc(CS(N)(=O)=O)c2)ncn1 | inactive: 0.982 | inactive: 1.06 |
| CC1(COc2ccc3c(c2)ncn3-c2ccc3cccc(N4CCC(N)CC4)c3n2)COC1 | inactive: 1.01 | inactive: 1.03 |
| C[C@@H](Oc1cc(-n2cnc3ccc(CN4CCN(C)CC4)cc32)sc1C(N)=O)c1ccccc1C(F)(F)F | inactive: 1.01 | inactive: 0.902 |
| Cc1cccc(C)c1NC(=O)C1CCCCN1C (stereo unspecified) [Mepivacaine] | inactive: 1.1 | inactive: 1.07 |
| FC(F)(F)c1ccc(CNc2ccc(Cc3c[nH]c4ncc(Cl)cc34)cn2)cn1 [Pexidartinib (PLX3397)] | inactive: 1.06 | inactive: 1.05 |
| CC(C)[C@H](CO)Nc1nc(Nc2cccc(Cl)c2)c2ncn(C(C)C)c2n1 [Purvalanol A] | inactive: 1 | inactive: 1.04 |
| CNC(C)C(=O)NC(C(=O)N1CCCC1C(=O)NC(C(=O)NCCCCCCNC(=O)C(NC(=O)C1CCCN1C(=O)C(NC(=O)C(C)NC)C1CCCCC1)C(c1ccccc1)c1ccccc1)C(c1ccccc1)c1ccccc1)C1CCCCC1 (stereo unspecified) (I: H-[NMeA][Chg]P[Dip] / II: H-[NMeA][Chg]P[Dip]; linker I:C-II:C via Hexamethylenediamine; configuration not given here) | inactive: 1.03 | inactive: 1.01 |
| CC(=O)c1cc([N+](=O)[O-])c(Sc2cccc(Cl)c2Cl)s1 | inactive: 0.998 | inactive: 1.02 |
| CNC(=O)c1ccc(-c2cnc3ncc(Cc4ccc5ncccc5c4)n3n2)cc1F | inactive: 0.96 | inactive: 0.934 |
| O=C(NCc1ccncc1)C12CC3CC(C1)CC(c1ccc(Cl)cc1)(C3)C2 | inactive: 1.02 | inactive: 1.1 |
| COc1ccc(-c2cnc3c(-c4cccc5ncccc45)cnn3c2)cc1 | inactive: 0.963 | inactive: 0.909 |
| COc1cc2ncnc(Oc3cccc(NC(=O)Nc4cc(C(C)(C)C(F)(F)F)on4)c3)c2cc1OC | inactive: 1.04 | inactive: 0.937 |
| COc1cc2c(cc1OC(C)C)[C@H](c1ccc(Cl)cc1)N(c1ccc(N(C)C[C@H]3CC[C@H](N4CCN(C)C(=O)C4)CC3)cc1)C(=O)C2 | inactive: 0.911 | inactive: 0.914 |
| CCc1cncnc1N1CCN(Cc2nc3ccc(C(F)(F)F)cc3[nH]2)CC1 | inactive: 0.999 | inactive: 1.04 |
| CN[C@H]1CN(c2ccc3c(=O)c(C(=O)O)cn(-c4nccs4)c3n2)C[C@@H]1OC [Voreloxin (SNS-595) hydrochloride] | inactive: 1.01 | inactive: 1.01 |
| CCCCOc1c(C(=O)c2c(F)cc(C)cc2F)c[nH]c2nncc1-2 | inactive: 0.997 | inactive: 1.09 |
| Nc1ccccc1NC(=O)c1ccc(CNC(=O)OCc2cccnc2)cc1 [Entinostat (MS-275)] | inactive: 1 | inactive: 1.08 |
| CN(C)CC[C@H](CSc1ccccc1)Nc1ccc(S(=O)(=O)NC(=O)c2ccc(N3CCN(Cc4ccccc4-c4ccc(Cl)cc4)CC3)cc2)cc1[N+](=O)[O-] | inactive: 0.931 | inactive: 0.987 |
| Nc1ncn([C@H]2C[C@H](O)[C@@H](CO)O2)c(=O)n1 [Decitabine] | inactive: 1.03 | inactive: 1.06 |
| O=C(Cc1ccc(-c2ccc(OCCN3CCOCC3)cc2)cn1)NCc1ccccc1 | active: 0.826 | active: 0.755 |
| O=c1cc(-c2ccc(O)c(O)c2)oc2cc(O)cc(O)c12 [Luteolin] | inactive: 1.06 | inactive: 1.13 |
| O=C(NOCCO)c1ccc2cncn2c1Nc1ccc(I)cc1F | inactive: 1.04 | inactive: 1.04 |
| CCOc1cc(C(=O)N2CCC(N3CCN(C)CC3)CC2)ccc1Nc1ncc2c(n1)N(C1CCCC1)c1ccccc1C(=O)N2C | inactive: 1.03 | inactive: 1.01 |

| SMILES | nucleolar normality score (1 µM) | nucleolar normality score (10 µM) |
| --- | --- | --- |
| CC(C)N(CCCNC(=O)Nc1ccc(C(C)(C)C)cc1)C[C@H]1O[C@@H](n2ccc3c(N)ncnc32)[C@H](O)[C@@H]1O | inactive: 0.899 | active: 0.81 |
| CCS(=O)(=O)Nc1ccc2[nH]c(O)c(C(=Nc3ccc(CN4CCCCC4)cc3)c3ccccc3)c2c1 [Hesperadin] | inactive: 1.01 | active: 0.824 |
| Cc1cc(Nc2ccc(NC(=O)c3ccc(Nc4ccnc5ccccc45)cc3)cc2)nc(N)n1 | inactive: 1.06 | inactive: 1.06 |
| O=c1cc(N2CCOCC2)oc2c1ccc1ccccc12 | inactive: 0.956 | inactive: 0.988 |
| CN1CCN(c2ccc(-c3ccncc3-c3cc(F)c(O)c(F)c3)cc2)CC1 | inactive: 1.01 | inactive: 1.07 |
| CCN(CCO)CCCOc1ccc2c(Nc3cc(CC(=O)Nc4cccc(F)c4)[nH]n3)ncnc2c1 [Barasertib (AZD1152-HQPA)] | inactive: 0.928 | inactive: 0.987 |
| C=CC(=O)N1CCC(Oc2cc3c(Nc4ccc(Cl)c(Cl)c4F)ncnc3cc2OC)CC1 [Poziotinib (HM781-36B)] | inactive: 1.05 | inactive: 1.07 |
| CO[C@@H](C(=O)N1Cc2[nH]nc(NC(=O)c3ccc(N4CCN(C)CC4)cc3)c2C1)c1ccccc1 | inactive: 0.998 | inactive: 0.977 |
| Cn1ncc(Cl)c1-c1cc(C(=O)N[C@H](CN)Cc2cccc(F)c2)sc1Cl | active: 0.483 | active: 0.407 |
| CC(C)(C)C[C@@H]1N[C@@H](C(=O)N[C@H]2CC[C@H](O)CC2)[C@H](c2cccc(Cl)c2F)[C@]12C(=O)Nc1cc(Cl)ccc12 | inactive: 1.05 | inactive: 1.02 |
| O=C(O)c1cc(O)c2c(c1)[C@@H]([C@H]1c3cc(C(=O)O)cc(O)c3C(=O)c3c(O[C@@H]4O[C@H](CO)[C@@H](O)[C@H](O)[C@H]4O)cccc31)c1cccc(O[C@@H]3O[C@H](CO)[C@@H](O)[C@H](O)[C@H]3O)c1C2=O [Sennoside B] | inactive: 0.974 | inactive: 0.878 |
| COc1c(O[C@@H]2O[C@H](CO)[C@@H](O)[C@H](O)[C@H]2O)cc2occ(-c3ccc(O)cc3)c(=O)c2c1O [Tectoridin] | inactive: 0.98 | inactive: 0.856 |
| CCC[C@H](Nc1nc(-c2ccc(NC(=O)NCC)c(OC)c2)ncc1C)c1cccnc1 [Lexibulin (CYT997)] | active: 0.833 | inactive: 0.945 |
| COc1cc(Nc2ncc(F)c(Nc3ccc4c(n3)NC(=O)C(C)(C)O4)n2)cc(OC)c1OC [R406 (free base)] | inactive: 0.909 | inactive: 0.923 |
| COc1ccc(C(=O)Nc2sc3c(c2C(N)=O)CCCC3)cc1OC | active: 0.802 | inactive: 1.04 |
| Cc1ccc(NC(=O)c2ccc(CN3CC[C@H](N(C)C)C3)c(C(F)(F)F)c2)cc1Nc1nccc(-c2cncnc2)n1 [Bafetinib (INNO-406)] | inactive: 1.08 | inactive: 1.06 |
| Cn1c(=O)c2c(ncn2CC(=O)O)n(C)c1=O [Theophylline-7-acetic acid] | inactive: 1.06 | inactive: 0.905 |
| CS(=O)(=O)c1cccc(CNc2nc(Nc3ccc4c(c3)CCC(=O)N4)ncc2C(F)(F)F)c1 | inactive: 0.96 | inactive: 1.02 |
| CC(C)(C)n1nc(-c2ccc(Cl)cc2)c2c(N)ncnc21 | inactive: 0.992 | active: 0.825 |
| CC1(C)CCC(CN2CCN(c3ccc(C(=O)NS(=O)(=O)c4ccc(NCC5CCOCC5)c([N+](=O)[O-])c4)c(Oc4cnc5[nH]ccc5c4)c3)CC2)=C(c2ccc(Cl)cc2)C1 [Venetoclax (ABT-199, GDC-0199)] | inactive: 1.1 | inactive: 1.09 |
| O=C(O)CC[C@H]1CC[C@@](c2cc(F)ccc2F)(S(=O)(=O)c2ccc(Cl)cc2)CC1 | inactive: 1.02 | inactive: 0.894 |
| COc1ccc(CCNCc2ccc(OCc3ccc(Cl)nc3)c(OC)c2)cc1OC | inactive: 0.921 | inactive: 1.03 |
| CS(=O)(=O)CCNCc1ccc(-c2ccc3ncnc(Nc4ccc(OCc5cccc(F)c5)c(Cl)c4)c3c2)o1 [Lapatinib] | inactive: 1.04 | inactive: 1.14 |
| CS(=O)(=O)CCNCc1ccc(-c2ccc3ncnc(Nc4ccc(OCc5cccc(F)c5)c(Cl)c4)c3c2)o1 | inactive: 1.05 | inactive: 1.09 |
| C=CC(=O)Nc1cccc(Nc2nc(Nc3ccc(N4CCN(C(C)=O)CC4)cc3OC)ncc2C(F)(F)F)c1 [Rociletinib (CO-1686, AVL-301)] | inactive: 1.01 | inactive: 1.05 |
| C/C(=N\NC(=O)c1cccc(S(=O)(=O)N2CCOCC2)c1)c1cc(Cl)ccc1O | inactive: 0.995 | inactive: 0.924 |
